# Over roughly 81,000 sequences, “one-hybrid fitness for binding NBS DNA” has its median near -0.1; the highest 2% begin near 0.36. This is one part of the list.
# B1: Caulobacter ParB omega fusion; a variant is named by its letters at X, in order, B8GW30 (parent)
# chain: MESVVVGEPGMSEGRRGLGRGLSALLGEVDAAPAQAPGEQLGGSREAPIEILQRNPDQPRRTFREEDLEDLSNSIREKGVLQPILVRPSPDTAGEYQIVAGERAWRAAQRAGLKTVPIMVRELDDLAVLEIGIIENVQRADLNVLEEALSYKVLMEKFERTQENIAQTIGKSXSHVANXMRLLXLPDEVQSYLVSGELTAXHARAIAAAADPVALAKQIIEGGLSVRETEALARKAPNLSAGKSKGGRPPRVKDTDTQALESDLSSVLGLDVSIDHRGSTGTLTITYATLEQLDDLCNRLTRGI
# Variants of: B1
# Assay: one-hybrid fitness for binding NBS DNA (the Noc-binding site; scaled: cognate 1, non-cognate 0); higher = stronger binding
# Conditions: with NBS DNA site
# Procedure, shortened: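 Fitness here means the log change in variant-to-wild-type read ratio between plasmids sequenced before and after selection. That scale was set so cognate equals 1 and non-cognate equals 0. The selection was a bacterial one-hybrid screen of Caulobacter ParB libraries, four specificity codons randomised, in E. coli USO carrying a HIS3 reporter with the site 19 bp from the promoter, grown 48 hours at 37°C on M9-minus-histidine with 0.1 mM IPTG and 5 mM 3-AT.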
row,Variant,one-hybrid fitness for binding NBS DNA
1,GHNT,≤ 0.2
2,QKMI,≤ 0.2
3,DTTI,≤ 0.2
4,NKSD,≤ 0.2
5,QTMA,0.32
6,DHPS,≤ 0.2
7,SFPG,≤ 0.2
8,QFYN,≤ 0.2
9,DSHP,≤ 0.2
10,HATL,≤ 0.2
11,VRFT,≤ 0.2
12,RAPR,≤ 0.2
13,LHNS,≤ 0.2
14,CQQG,≤ 0.2
15,FTPD,≤ 0.2
16,TRIC,≤ 0.2
17,RLCV,≤ 0.2
18,ATID,≤ 0.2
19,RMAP,≤ 0.2
20,RMAS,0.405
21,ENTF,≤ 0.2
22,MFAR,≤ 0.2
23,LFNR,≤ 0.2
24,FMNS,≤ 0.2

row,Variant,one-hybrid fitness for binding NBS DNA
1,RYEY,≤ 0.2
2,VLKL,≤ 0.2
3,QSIW,≤ 0.2
4,KSVC,≤ 0.2
5,QTAY,0.306
6,RFHG,≤ 0.2
7,YWLA,≤ 0.2
8,QQTG,≤ 0.2
9,RFHI,≤ 0.2
10,FLSM,≤ 0.2
11,KNAE,≤ 0.2
12,KDWS,≤ 0.2
13,NSSV,≤ 0.2
14,PDHV,≤ 0.2
15,LQVS,≤ 0.2
16,LMVG,≤ 0.2
17,YMGG,≤ 0.2
18,VLMH,≤ 0.2
19,PSEE,≤ 0.2
20,VNEF,≤ 0.2
21,VDVD,≤ 0.2
22,AMTT,≤ 0.2
23,TTAA,≤ 0.2
24,SRRE,≤ 0.2

row,Variant,one-hybrid fitness for binding NBS DNA
1,GTTF,≤ 0.2
2,HQVS,≤ 0.2
3,GEMS,≤ 0.2
4,GFPS,≤ 0.2
5,PPRC,≤ 0.2
6,QGYA,≤ 0.2
7,SIWC,≤ 0.2
8,LMCR,≤ 0.2
9,DQMT,≤ 0.2
10,VRRT,0.432
11,EKGT,≤ 0.2
12,RETD,≤ 0.2
13,GVHG,≤ 0.2
14,SAEL,≤ 0.2
15,FPSL,≤ 0.2
16,RDWR,≤ 0.2
17,HSYW,≤ 0.2
18,SINK,≤ 0.2
19,PDRW,≤ 0.2
20,MLVR,≤ 0.2
21,PGCC,≤ 0.2
22,DTYT,≤ 0.2
23,VTRF,≤ 0.2
24,RALF,≤ 0.2

row,Variant,one-hybrid fitness for binding NBS DNA
1,ERPD,≤ 0.2
2,WETS,≤ 0.2
3,EPDA,≤ 0.2
4,RTQS,0.459
5,NEDG,≤ 0.2
6,YWPM,≤ 0.2
7,GLIL,≤ 0.2
8,MSRH,≤ 0.2
9,RFHF,≤ 0.2
10,ETFT,≤ 0.2
11,SVGL,≤ 0.2
12,VLCR,≤ 0.2
13,EDRR,≤ 0.2
14,AHQF,≤ 0.2
15,RDIG,≤ 0.2
16,DRWL,≤ 0.2
17,SALI,≤ 0.2
18,VVFR,≤ 0.2
19,GNPC,≤ 0.2
20,MGPV,≤ 0.2
21,AFRH,≤ 0.2
22,SQKR,0.229
23,VKPV,≤ 0.2
24,WLMS,≤ 0.2

row,Variant,one-hybrid fitness for binding NBS DNA
1,IDPR,≤ 0.2
2,RRKD,0.226
3,MTQD,≤ 0.2
4,HPIS,≤ 0.2
5,PQPT,≤ 0.2
6,KHKH,≤ 0.2
7,PIPL,≤ 0.2
8,RRHI,0.228
9,SVYW,≤ 0.2
10,RPKP,≤ 0.2
11,PWMI,≤ 0.2
12,PWDI,≤ 0.2
13,NQCG,≤ 0.2
14,IGLG,≤ 0.2
15,QGKY,≤ 0.2
16,TLWA,≤ 0.2
17,PQHA,≤ 0.2
18,LSIC,≤ 0.2
19,CGYR,≤ 0.2
20,PCML,≤ 0.2
21,KSNC,≤ 0.2
22,SLHG,≤ 0.2
23,HRDS,≤ 0.2
24,RSQE,≤ 0.2

row,Variant,one-hybrid fitness for binding NBS DNA
1,SRIK,≤ 0.2
2,CHDC,≤ 0.2
3,DCRY,≤ 0.2
4,KVNG,≤ 0.2
5,SPRH,≤ 0.2
6,TLMD,≤ 0.2
7,CAKS,≤ 0.2
8,HAKD,≤ 0.2
9,THTE,≤ 0.2
10,ICYG,≤ 0.2
11,HPTP,≤ 0.2
12,RLVE,≤ 0.2
13,PCVA,≤ 0.2
14,NMTI,≤ 0.2
15,RAYD,≤ 0.2
16,MDAY,≤ 0.2
17,TQVR,≤ 0.2
18,DAVR,≤ 0.2
19,HITT,≤ 0.2
20,DFQA,≤ 0.2
21,NNGC,≤ 0.2
22,WAFG,≤ 0.2
23,CLEI,≤ 0.2
24,GHVS,≤ 0.2

row,Variant,one-hybrid fitness for binding NBS DNA
1,ENIG,≤ 0.2
2,SWNT,≤ 0.2
3,QYYC,≤ 0.2
4,KNKS,≤ 0.2
5,PPYY,≤ 0.2
6,PTTY,≤ 0.2
7,KRYL,≤ 0.2
8,PSEC,≤ 0.2
9,KRCW,≤ 0.2
10,THDY,≤ 0.2
11,QVTD,≤ 0.2
12,RREI,≤ 0.2
13,YFSY,≤ 0.2
14,HQSD,≤ 0.2
15,NEYG,≤ 0.2
16,VFNT,≤ 0.2
17,NSLC,≤ 0.2
18,SRGT,≤ 0.2
19,SFEW,≤ 0.2
20,DNMC,≤ 0.2
21,ANES,≤ 0.2
22,RCPW,≤ 0.2
23,MRCF,≤ 0.2
24,RGNA,≤ 0.2

row,Variant,one-hybrid fitness for binding NBS DNA
1,RWVN,≤ 0.2
2,RNPS,≤ 0.2
3,VWAF,≤ 0.2
4,AEPI,≤ 0.2
5,GTQR,≤ 0.2
6,YICG,≤ 0.2
7,GPIT,≤ 0.2
8,IYQG,≤ 0.2
9,LTYL,0.229
10,LNVP,≤ 0.2
11,SSAV,≤ 0.2
12,DVRV,≤ 0.2
13,RNRC,≤ 0.2
14,WNKT,≤ 0.2
15,DKVS,≤ 0.2
16,CRVG,≤ 0.2
17,WTRC,≤ 0.2
18,MVSE,≤ 0.2
19,PSPE,≤ 0.2
20,ANNL,≤ 0.2
21,LTTC,≤ 0.2
22,CDPS,≤ 0.2
23,AREC,≤ 0.2
24,DWEL,≤ 0.2

row,Variant,one-hybrid fitness for binding NBS DNA
1,FWPW,≤ 0.2
2,SPQR,≤ 0.2
3,TIAL,≤ 0.2
4,VHGG,≤ 0.2
5,SFVS,≤ 0.2
6,SDKW,≤ 0.2
7,KTNI,≤ 0.2
8,CIWR,≤ 0.2
9,NIVV,≤ 0.2
10,EQYP,≤ 0.2
11,SRMI,≤ 0.2
12,LSVY,≤ 0.2
13,LRPA,≤ 0.2
14,MTHA,≤ 0.2
15,YSCE,≤ 0.2
16,KMIK,≤ 0.2
17,SRNN,≤ 0.2
18,QRSE,0.22
19,TFDK,≤ 0.2
20,LIAT,≤ 0.2
21,AGQN,≤ 0.2
22,RECC,≤ 0.2
23,HRDQ,≤ 0.2
24,FDSW,≤ 0.2

row,Variant,one-hybrid fitness for binding NBS DNA
1,NRWC,≤ 0.2
2,RFPS,≤ 0.2
3,PCRC,≤ 0.2
4,CMNM,≤ 0.2
5,QAPA,≤ 0.2
6,WNKP,≤ 0.2
7,QANY,≤ 0.2
8,PKPV,≤ 0.2
9,RMSC,≤ 0.2
10,ETYS,≤ 0.2
11,FWMC,≤ 0.2
12,YDSG,≤ 0.2
13,TWNR,≤ 0.2
14,WRDR,≤ 0.2
15,FILT,≤ 0.2
16,CPPS,≤ 0.2
17,DAHV,≤ 0.2
18,ARSE,≤ 0.2
19,MTPE,≤ 0.2
20,HHSM,≤ 0.2
21,EMGS,≤ 0.2
22,DFNG,≤ 0.2
23,VFLS,≤ 0.2
24,VTYR,≤ 0.2

row,Variant,one-hybrid fitness for binding NBS DNA
1,ASAM,≤ 0.2
2,EPFW,≤ 0.2
3,KLMG,≤ 0.2
4,RVYA,≤ 0.2
5,MHNT,≤ 0.2
6,RAAR,0.385
7,PCKR,0.205
8,LFTR,≤ 0.2
9,KAHV,≤ 0.2
10,WVYT,≤ 0.2
11,TMTT,≤ 0.2
12,GERC,≤ 0.2
13,VCTK,≤ 0.2
14,RMIH,≤ 0.2
15,QPNG,≤ 0.2
16,VVTN,≤ 0.2
17,CTDW,≤ 0.2
18,QEAE,≤ 0.2
19,TLPG,≤ 0.2
20,VRVT,≤ 0.2
21,PYAR,≤ 0.2
22,LDHY,≤ 0.2
23,ERPW,≤ 0.2
24,FNCC,≤ 0.2

row,Variant,one-hybrid fitness for binding NBS DNA
1,FHIF,≤ 0.2
2,MYWS,≤ 0.2
3,FDDS,≤ 0.2
4,DANG,≤ 0.2
5,GPWC,≤ 0.2
6,ESMT,≤ 0.2
7,HMDM,≤ 0.2
8,CWVT,≤ 0.2
9,ARGQ,≤ 0.2
10,VFTK,≤ 0.2
11,MNYR,≤ 0.2
12,FAAS,≤ 0.2
13,ASAE,≤ 0.2
14,IHCL,≤ 0.2
15,ADVR,≤ 0.2
16,PNGC,≤ 0.2
17,HIYT,≤ 0.2
18,NHAC,≤ 0.2
19,VKGT,≤ 0.2
20,IFPY,≤ 0.2
21,PLTF,≤ 0.2
22,GYQT,≤ 0.2
23,MYPT,≤ 0.2
24,ALDN,≤ 0.2

row,Variant,one-hybrid fitness for binding NBS DNA
1,TAAP,≤ 0.2
2,EPRF,≤ 0.2
3,YTQG,≤ 0.2
4,RDCW,≤ 0.2
5,LWET,≤ 0.2
6,TPKQ,≤ 0.2
7,LFAT,≤ 0.2
8,RGPK,≤ 0.2
9,YSQW,≤ 0.2
10,WGYG,≤ 0.2
11,IWQV,≤ 0.2
12,SGVG,≤ 0.2
13,KTES,≤ 0.2
14,PCHT,≤ 0.2
15,AHTI,≤ 0.2
16,YESP,≤ 0.2
17,CSVV,≤ 0.2
18,KPIC,≤ 0.2

# — a collection of fitness landscapes (doi:10.1016/j.celrep.2020.107928)
